# PubChem BioAssay AID624418 (National Center for Advancing Translational Sciences (NCATS), 2012)
# In all, about 410,000 compounds went through this assay and about 530 (0.13%) were called active. Inconclusive means that the source gave no clear call. Such entries were picked first, then a sample of the others. The call rests on the fitted dose curve; in most records, active means well fitted inhibition curve with a large enough effect; inconclusive means small, poorly fitted or top-dose-only effect, or another doubt; inactive means no such curve, though single readings can be large or run the other way. Potencies of inconclusive entries are doubtful fits and often do not repeat.
# Assay: qHTS of GLP-1 Receptor Inverse Agonists: Cytotox Screen
# Conditions: HEK293 cAMP-luciferase reporter cells, luminescence, 24 h; series mostly up to 38.3 µM
# In short: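 Compound-treated cells are incubated 24 hr at 37 deg C under 5% CO2 after a 12 hour attachment period, then luciferase detection reagent is added and luminescence is measured following 12 min at room temperature; lowered signal indicates toxicity.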
# Potency means the concentration at half of the fitted maximal effect.
row,Compound,Potency
1,Cc1cccc(N2CCN(Cc3nc(-c4ccc(F)cc4F)oc3C)CC2)n1,inactive
2,Cc1noc(-c2ccc(Cl)cc2)c1C(=O)O/N=C(\N)c1ccc(C(C)(C)C)cc1,"inconclusive: 20 µM [inhibitor, single point]"
3,CCCCCCN1C=C/C(=C\C=C(C#N)C#N)c2ccccc21,"inconclusive: 3.98 µM [inhibitor, full curve, poor fit]"
4,Cc1ccc(S(=O)(=O)Nc2cccc(C(=O)NC3CCN(Cc4ccccc4)CC3)c2)cc1F,"inconclusive: 12.6 µM [inhibitor, single point]"
5,COc1ccc(CCCNC(=O)C2(C)Cc3c(-c4ccc(NC(C)=O)cc4)ccnc3O2)cc1 (stereo unspecified),"inconclusive: 28.2 µM [inhibitor, single point]"
6,COc1ccc(Cl)cc1NC(=O)C1CCN(C(=O)Nc2ccccc2)CC1,"inconclusive: 14.1 µM [inhibitor, single point]"
7,Cc1cc(C)c(S(=O)(=O)c2ccccc2)c(OC(=O)c2c(Cl)cc(Cl)cc2Cl)n1,"inconclusive: 14.1 µM [inhibitor, single point]"
8,CN(CC1COc2ccccc2O1)C(=O)c1ccc(Cl)c(S(=O)(=O)N2CCCCCC2)c1 (stereo unspecified),"inconclusive: 8.91 µM [inhibitor, partial curve, poor fit]"
9,CCNC(=O)C1CCCN(Cc2ccc(OCc3ccccc3)cc2)CC1 (stereo unspecified),inactive
10,CC1=C(C)CC2C(C1)C(=O)c1ccc(Br)cc1S2(=O)=O (stereo unspecified),"inconclusive: 0.316 µM [inhibitor, full curve, poor fit]"
11,CCC(=O)Nc1nc2ccccc2n1Cc1ccc(C)cc1,"inconclusive: 10 µM [inhibitor, single point]"
12,COc1ccc(NC(=O)c2noc3c2CCC3)cc1,"inconclusive: 28.2 µM [inhibitor, single point]"
13,Cc1ccc2cc(CN(Cc3ccc(F)cc3)Cc3nnnn3C3CCCC3)c(=O)[nH]c2c1,"inconclusive: 11.2 µM [inhibitor, single point]"
14,CCOc1ccc(C(=O)Nc2cc(S(=O)(=O)Nc3ccccc3Cl)ccc2N2CCOCC2)cc1,inactive
15,COc1ccc2[nH]c(=O)c(CN(CC3CCCO3)C(=O)Nc3ccccc3OC)cc2c1 (stereo unspecified),"inconclusive: 28.2 µM [inhibitor, single point]"
16,CN1C(=O)c2ccccc2Sc2ccc(NC(=O)N3CCN(c4ccccc4F)CC3)cc21,inactive
17,COCCN1CCC(CNCc2cn(-c3cc(C)ccc3C)nc2-c2ccccc2)C1 (stereo unspecified),"inconclusive: 14.1 µM [inhibitor, single point]"
18,Cc1ccc2[nH]c(=O)c(CN(Cc3cccs3)Cc3nnnn3Cc3ccccc3)cc2c1,"inconclusive: 28.2 µM [inhibitor, single point]"
19,COc1ccc(/C=C(/C(=O)c2cccs2)N2C=CC=CC2=C(C#N)C#N)cc1,inactive
20,COc1ccc(C(=O)NC(=S)N(C)C2CCCCC2)cc1,"inconclusive: 7.08 µM [inhibitor, partial curve, poor fit]"
21,COc1ccc(-c2nc(C#N)c(NCCc3ccccc3)o2)cc1,inactive
22,COC(=O)c1ccccc1OCCN1CCCCCC1,"inconclusive: 28.2 µM [inhibitor, single point]"

row,Compound,Potency
1,CC1(Cc2ccc(C(F)(F)F)o2)C(=O)Nc2cc(-c3ccc(F)cc3F)ccc21 (stereo unspecified),"inconclusive: 28.2 µM [inhibitor, single point]"
2,CC(C)(C)OC(=O)C[C@H]1C/C=C\C[C@H](CC(=O)N[C@H](CO)Cc2ccccc2)C(=O)N[C@@H](Cc2ccccc2)COC1=O,"inconclusive: 28.2 µM [inhibitor, single point]"
3,CC#CCN(Cc1ccco1)C(=O)c1ccc(OC2CCN(Cc3ccccn3)CC2)cc1,"inconclusive: 25.1 µM [inhibitor, single point]"
4,COC(=O)c1ccc(NC(=S)NC(=O)C2CCC2)cc1,"inconclusive: 11.2 µM [inhibitor, single point]"
5,C(=C\N1CCCCCC1)/c1nnnn1-c1ccc(-c2ccccc2)cc1,"inconclusive: 2.82 µM [inhibitor, full curve, poor fit]"
6,O=C(NC(=S)N1CCN(c2ccc([N+](=O)[O-])cc2)CC1)c1ccccc1F,"inconclusive: 12.6 µM [inhibitor, single point]"
7,O=[N+]([O-])c1ccc(N2CCOCC2)cc1NCCCO,"inconclusive: 10 µM [inhibitor, partial curve, poor fit]"
8,COc1ccccc1NS(=O)(=O)c1cc(N2Cc3ccccc3C2=N)ccc1N1CCOCC1,"inconclusive: 14.1 µM [inhibitor, single point]"
9,CC(=C/c1ccc(C(C)C)cc1)/C=N/NC(=O)c1ccncc1,"inconclusive: 22.4 µM [inhibitor, single point]"
10,Clc1ccc(Cn2ncc3c(NCc4ccco4)ncnc32)c(Cl)c1,"inconclusive: 31.6 µM [inhibitor, single point]"
11,Cc1nc(CSc2ccc(Cl)cc2)cc(NCc2ccccc2)n1,inactive
12,CN(CCOc1ccc(Cl)cc1)C(=O)c1cc([N+](=O)[O-])ccc1N1CCOCC1,"inconclusive: 10 µM [inhibitor, partial curve, poor fit]"
13,Cc1cc(OC(=O)c2ccc(Cl)cc2Cl)c([N+](=O)[O-])c(=O)[nH]1,inactive
14,N#CC(=C(O)COC(=O)CCC1CCCCC1)c1nc2ccccc2[nH]1,inactive
15,CCN(CC)CCCNC(=O)c1cn(CCOC)c(=O)c2c1c1ccccc1n2C,inactive
16,CNC(=O)C1CCC(Cn2c(=O)c3sccc3n(CC(=O)NCc3cccc(OC)c3)c2=O)CC1 (stereo unspecified),inactive
17,CCCC1(C(=O)OCC)NC(c2ccc(O)cc2)C2C(=O)N(c3ccc4c(c3)OCCO4)C(=O)C21 (stereo unspecified),"inconclusive: 3.16 µM [inhibitor, partial curve, poor fit]"
18,Clc1cccc(N/N=C/c2ccc(N3CCOCC3)s2)c1,"inconclusive: 8.91 µM [inhibitor, partial curve, poor fit]"
19,O=C(O)CC(C(=O)O)N1C(=O)/C(=C/C=C/c2ccco2)SC1=S (stereo unspecified),inactive
20,CCCOc1ccc(C(=O)CCN2CCN(C(=O)OCC)CC2)cc1,"inconclusive: 28.2 µM [inhibitor, single point]"
21,C=C1Cn2c(nnc2-c2ccc(Cl)cc2)S1,"inconclusive: 22.4 µM [inhibitor, single point]"
22,Cc1c(Cl)cccc1NC(=S)N1CCCN(Cc2ccc(F)cc2)C1,"inconclusive: 28.2 µM [inhibitor, single point]"

row,Compound,Potency
1,CCn1c(=O)cc(SCC(=O)NCc2ccco2)c2ccccc21,"inconclusive: 3.16 µM [inhibitor, full curve, poor fit]"
2,Cc1ccc(S(=O)(=O)N/N=C\c2ccccc2OCc2ccccc2)cc1,"inconclusive: 28.2 µM [inhibitor, single point]"
3,COc1cc(CNCCc2ccc(S(N)(=O)=O)cc2)ccc1OCc1ccc(Cl)cc1,"inconclusive: 28.2 µM [inhibitor, single point]"
4,Cc1ccc(S(=O)(=O)N(CC(=O)Nc2cccc([N+](=O)[O-])c2)C2CCCCC2)cc1,inactive
5,Cc1[nH]n(-c2ccccc2)c(=O)c1N=Nc1ccccc1O,"inconclusive: 1 µM [inhibitor, full curve, poor fit]"
6,C=CCNC(=O)NC(=O)CN1C(=O)NC(c2ccccc2)(c2ccccc2)C1=O,"inconclusive: 28.2 µM [inhibitor, single point]"
7,COC(=O)c1c(N)sc(C(=O)NCCc2ccccc2)c1C,inactive
8,COc1cc(OC)c(-c2sc(Nc3ccccc3)n[n+]2-c2ccc(F)cc2)cc1OC,"inconclusive: 28.2 µM [inhibitor, single point]"
9,CC1CCN(CC(O)COC2CC(C)CCC2C(C)C)CC1 (stereo unspecified),"inconclusive: 2.51 µM [inhibitor, full curve]"
10,CC(C)CC1Nc2ncnc(N3CCOCC3)c2N(Cc2ccccc2)C1=O (stereo unspecified),inactive
11,Cc1ccc(C)c(-n2nnnc2Sc2nnnn2-c2ccccc2)c1,"inconclusive: 6.31 µM [inhibitor, partial curve, poor fit]"
12,CC1CCCCC1NC(=O)/C(C#N)=C/c1ccccc1F (stereo unspecified),"inconclusive: 11.2 µM [inhibitor, partial curve, poor fit]"
13,CCOC(=O)c1cc(-c2ccccc2)n(-c2cccc(C(=O)Nc3cccc(F)c3)c2)c1C,inactive
14,FC(F)Oc1ccc(NC(=S)NC2CCSc3ccccc32)cc1 (stereo unspecified),"inconclusive: 28.2 µM [inhibitor, single point]"
15,CC(C)c1ccc(NC(=O)c2snc3ccc(Cl)cc23)cc1,"inconclusive: 11.2 µM [inhibitor, single point]"
16,S=C(Nc1ccc(Br)cc1)NC1CCCCC1,"inconclusive: 22.4 µM [inhibitor, single point]"
17,O=[N+]([O-])c1ccc2nc(N3CCCC3)sc2c1,inactive
18,CCCCNC(=O)OCC(CC)NC(=O)OC(C)C (stereo unspecified),inactive
19,O=C(N/N=C\c1c(O)ccc2ccccc12)c1ccc(Cn2cccn2)o1,inactive
20,C=CCn1c(=S)[nH]c2ccc(Br)cc2c1=O,"inconclusive: 17.8 µM [inhibitor, partial curve, poor fit]"
21,CC(C)CS(=O)(=O)c1oc(-c2ccc(F)cc2)nc1S(=O)(=O)c1ccccc1,"inconclusive: 10 µM [inhibitor, partial curve, poor fit]"
22,COCCCNC(=S)N/N=C/c1ccccc1O,"inconclusive: 0.501 µM [inhibitor, full curve, poor fit]"
